How the values were obtained:
[1] = target: D3-03-N1; assay: SPR; 37 °C
[2] = target: D3-03-N1 germline-reverted; assay: SPR
[3] = target: D3-24-N1 germline-reverted; assay: SPR
[4] = target: D3-23-N1 germline-reverted; assay: SPR
[5] = target: D2-14-N1 germline-reverted; assay: SPR
[6] = target: D1-10-N1 germline-reverted; assay: SPR
[7] = target: D3-12-N1 germline-reverted; assay: SPR
[8] = target: D3-05-N2 germline-reverted; assay: SPR
[9] = target: D4-31-N2 germline-reverted; assay: SPR
[10] = target: D3-02-N2 germline-reverted; assay: SPR
[11] = target: D3-01-N2 germline-reverted; assay: SPR

Row | Binder | Kd [1] [nM] | Kd [2] [nM] | Kd [3] [nM] | Kd [4] [nM] | Kd [5] [nM] | Kd [6] [nM] | Kd [7] [nM] | Kd [8] [nM] | Kd [9] [nM] | Kd [10] [nM] | Kd [11] [nM]
1 | recombinant full-length IsdB (natural protein) not shown | 0.686 | 1170 | 160 | 56.6 | 6.1 | 6.7 | 32.5 |  |  |  | 
2 | IsdB NEAT2 domain (domain or fragment) not shown |  |  |  |  |  |  |  | 56.9 | 716 | 665 | 40.5
